Laboratory results as given in the supplement of paper PMC12217912.
The list shows a part of the results. Sequences were assembled here from the parent chain. Inactive controls read about 0.05.

B1: TEV protease; numbered along this chain (parent)
chain: MGESLFKGPRDYNPISSSICHLTNESDGHTTSLYGIGFGPFIITNKHLFRRNNGTLVVQSLHGVFKVKDTTTLQQHLVDGRDMIIIRMPKDFPPFPQKLKFREPQREERICLVTTNFQTKSMSSMVSDTSCTFPSGDGIFWKHWIQTKDGQCGSPLVSTRDGFIVGIHSASNFTNTNNYFTSVPKNFMELLTNQEAQQWVSGWRLNADSVLWGGHKVFMVKPEEPFQPVKEATQL

Variants of: B1
Experiment: raw area under fraction-flipped curve 0-4 h after induction (AUC4h, not background-subtracted), DNA-recorder readout of cleavage of the substrate (dimensionless); higher = more cleavage of the substrate by the protease variant
Settings: temperature: 34 °C; time window: 0-4 h after rhamnose induction
Protocol: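 In vivo DNA recorder in E. coli TOP10(DE3) ΔrhaA at 34 °C. Each TEVp single-site mutant (parent TEVp 0) is paired with a single-site variant of the 7-mer TEVs (canonical ENLYFQ|S). The substrate sits between flexible linkers in a Bxb1-sfGFP-TEVs-SsrA fusion, so cleavage stabilises Bxb1 and speeds flipping of a recombination array, read by NGS. The value is the raw area under the fraction-flipped curve over 0-4 h after rhamnose induction (AUC4h), with ≥20 reads per time point. It is not background-subtracted; inactive controls average about 0.047.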
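Further: Bxb1 expression induced with 0.2% (w/v) L-rhamnose at OD600 near 0.5, cultures sampled hourly, flipped fraction per protease–substrate barcode pair counted by paired-end Illumina sequencing.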

Variant	area with substrate ENLYFQC	area with substrate ENLYFQG	area with substrate ENLYFQI	area with substrate ENLYFQK	area with substrate ENLYFQL	area with substrate ENLYFQM	area with substrate ENLYFQN	area with substrate ENLYFQP	area with substrate ENLYFQQ	area with substrate ENLYFQR	area with substrate ENLYFQS	area with substrate ENLYFQT	area with substrate ENLYFQV	area with substrate ENLYFQW	area with substrate ENLYFQY	area with substrate ENLYFQF	area with substrate ENLYFQH	area with substrate ENLYFQD	area with substrate ENLYFQE	area with substrate ENLYFQA
MGEMLFKGPRDYNPISSSICHLTNESDGHTTSLYGIGFGPFIITNKHLFRRNNGTLVVQSLHGVFKVKDTTTLQQHLVDGRDMIIIRMPKDFPPFPQKLKFREPQREERICLVTTNFQTKSMSSMVSDTSCTFPSGDGIFWKHWIQTKDGQCGSPLVSTRDGFIVGIHSASNFTNTNNYFTSVPKNFMELLTNQEAQQWVSGWRLNADSVLWGGHKVFMVKPEEPFQPVKEATQL [S4M]	0.102	0.0756	0.0587	0.0866	0.0469	0.0656	0.0755	0.0656	0.061	0.0533	0.082	0.0682	0.0695	0.0579	0.0695					
MGESLFKGPRDYNPISSSICHLTNESDGHTPSLYGIGFGPFIITNKHLFRRNNGTLVVQSLHGVFKVKDTTTLQQHLVDGRDMIIIRMPKDFPPFPQKLKFREPQREERICLVTTNFQTKSMSSMVSDTSCTFPSGDGIFWKHWIQTKDGQCGSPLVSTRDGFIVGIHSASNFTNTNNYFTSVPKNFMELLTNQEAQQWVSGWRLNADSVLWGGHKVFMVKPEEPFQPVKEATQL [T31P]	0.0723	0.0342	0.059	0.0604	0.0502	0.0561	0.0706	0.0423		0.0644	0.064	0.0522	0.0441	0.0631	0.0567	0.0903	0.0569			
MGESLFKGPRDYNPISSSICHLTNESKGHTTSLYGIGFGPFIITNKHLFRRNNGTLVVQSLHGVFKVKDTTTLQQHLVDGRDMIIIRMPKDFPPFPQKLKFREPQREERICLVTTNFQTKSMSSMVSDTSCTFPSGDGIFWKHWIQTKDGQCGSPLVSTRDGFIVGIHSASNFTNTNNYFTSVPKNFMELLTNQEAQQWVSGWRLNADSVLWGGHKVFMVKPEEPFQPVKEATQL [D27K]	0.0855		0.0589	0.0682	0.0536		0.0801		0.0661	0.0564	0.0877		0.0587	0.093	0.0846	0.068		0.0793	0.07	
MGESLFKGPRDYNPISSSICHLTNESDGHTTSLYGIGFGPFIITNKHLFRRNNGTLVVQSLHGVFKVKDTTTLQQHLVDGRDMIIIRMPKDFPPFPQKLKFREPQREERICLVTTNFQTKSMSSMVSDTSCTFPSGDGIFWKHWIQTKDGQCGSPLVSTRDGFIVGIHSASNFTNTNNYFTSVPKNFMELLTNQEAQQWVSGWRLNADSVLWGGHKVFMVKPEEPFQPVKEATIL [Q234I]	0.0833	0.113			0.0532				0.0429		0.0937	0.102			0.0667				0.0593	0.0881
MGESLFKGPRDYNPISSSICHLTNESDGHTTSLYGIGFGPFIITNKHLFRRNNGTLVVQSLHGVFKVKDTTTLQQHLVDGRDMIIIRMPKDFPPFPQKLKFREPQREERICLVTTNFQTKSMSSMVSDTSCTFPSGDGIFWKHWIQTKDGQCGSPLVSTRDGFIVGIHSASNFTNTNNYFTSVPKNFMELLTNQEAQQWVSGWRLNADSVLWGGHKVFMVKPEEPFQPVKEATKL [Q234K]	0.118	0.104			0.0507	0.138	0.0733	0.0608	0.0665	0.0614	0.109	0.0679	0.0542	0.0683		0.101	0.0824	0.0762		0.119
MGESLFKGPRDYNPSSSSICHLTNESDGHTTSLYGIGFGPFIITNKHLFRRNNGTLVVQSLHGVFKVKDTTTLQQHLVDGRDMIIIRMPKDFPPFPQKLKFREPQREERICLVTTNFQTKSMSSMVSDTSCTFPSGDGIFWKHWIQTKDGQCGSPLVSTRDGFIVGIHSASNFTNTNNYFTSVPKNFMELLTNQEAQQWVSGWRLNADSVLWGGHKVFMVKPEEPFQPVKEATQL [I15S]	0.103	0.0508	0.0509	0.0531	0.0588	0.0701	0.0572	0.0433	0.0466	0.0619	0.0746	0.0574	0.0764		0.0724		0.0421	0.0505	0.062	
MGESLFKGPRDYNPISSSICHLSNESDGHTTSLYGIGFGPFIITNKHLFRRNNGTLVVQSLHGVFKVKDTTTLQQHLVDGRDMIIIRMPKDFPPFPQKLKFREPQREERICLVTTNFQTKSMSSMVSDTSCTFPSGDGIFWKHWIQTKDGQCGSPLVSTRDGFIVGIHSASNFTNTNNYFTSVPKNFMELLTNQEAQQWVSGWRLNADSVLWGGHKVFMVKPEEPFQPVKEATQL [T23S]	0.0904	0.0694	0.0606	0.0773	0.0606	0.0816	0.076	0.0773		0.0801	0.0959	0.059	0.0518	0.0765	0.0695	0.0935	0.0713	0.0802		
MGESLFKGPRDYNPISSSICHLTNEKDGHTTSLYGIGFGPFIITNKHLFRRNNGTLVVQSLHGVFKVKDTTTLQQHLVDGRDMIIIRMPKDFPPFPQKLKFREPQREERICLVTTNFQTKSMSSMVSDTSCTFPSGDGIFWKHWIQTKDGQCGSPLVSTRDGFIVGIHSASNFTNTNNYFTSVPKNFMELLTNQEAQQWVSGWRLNADSVLWGGHKVFMVKPEEPFQPVKEATQL [S26K]	0.0745	0.0761		0.0509	0.0546	0.0602	0.0705		0.075	0.0595	0.0709	0.0545	0.0684		0.0457		0.054	0.0411		
MGESLFKGPRDYNPISSKICHLTNESDGHTTSLYGIGFGPFIITNKHLFRRNNGTLVVQSLHGVFKVKDTTTLQQHLVDGRDMIIIRMPKDFPPFPQKLKFREPQREERICLVTTNFQTKSMSSMVSDTSCTFPSGDGIFWKHWIQTKDGQCGSPLVSTRDGFIVGIHSASNFTNTNNYFTSVPKNFMELLTNQEAQQWVSGWRLNADSVLWGGHKVFMVKPEEPFQPVKEATQL [S18K]	0.076	0.0855	0.0827	0.07		0.0897	0.0689			0.0514	0.0875	0.0387	0.0447	0.0635			0.0806	0.0738		
MGESLFKGPRDYNPISSSICHLTNESDGHFTSLYGIGFGPFIITNKHLFRRNNGTLVVQSLHGVFKVKDTTTLQQHLVDGRDMIIIRMPKDFPPFPQKLKFREPQREERICLVTTNFQTKSMSSMVSDTSCTFPSGDGIFWKHWIQTKDGQCGSPLVSTRDGFIVGIHSASNFTNTNNYFTSVPKNFMELLTNQEAQQWVSGWRLNADSVLWGGHKVFMVKPEEPFQPVKEATQL [T30F]	0.112	0.113	0.0592	0.0618	0.061	0.082	0.0746	0.0533	0.0609	0.0692	0.102	0.0672	0.0646	0.0604	0.0836	0.0802		0.073		
MGESLFKGPRDYNPISSSICHLTNESDGRTTSLYGIGFGPFIITNKHLFRRNNGTLVVQSLHGVFKVKDTTTLQQHLVDGRDMIIIRMPKDFPPFPQKLKFREPQREERICLVTTNFQTKSMSSMVSDTSCTFPSGDGIFWKHWIQTKDGQCGSPLVSTRDGFIVGIHSASNFTNTNNYFTSVPKNFMELLTNQEAQQWVSGWRLNADSVLWGGHKVFMVKPEEPFQPVKEATQL [H29R]	0.073			0.0796	0.0558	0.077	0.0835	0.0709	0.0665	0.0728	0.0792	0.0546		0.0571		0.0571	0.0717	0.0583		
MGESLFKGPRDKNPISSSICHLTNESDGHTTSLYGIGFGPFIITNKHLFRRNNGTLVVQSLHGVFKVKDTTTLQQHLVDGRDMIIIRMPKDFPPFPQKLKFREPQREERICLVTTNFQTKSMSSMVSDTSCTFPSGDGIFWKHWIQTKDGQCGSPLVSTRDGFIVGIHSASNFTNTNNYFTSVPKNFMELLTNQEAQQWVSGWRLNADSVLWGGHKVFMVKPEEPFQPVKEATQL [Y12K]	0.1	0.0727	0.0467	0.0438	0.0703		0.0779	0.0515		0.0496	0.0956	0.0704	0.0505	0.0741	0.0663			0.069		
MGESLFKGPRDHNPISSSICHLTNESDGHTTSLYGIGFGPFIITNKHLFRRNNGTLVVQSLHGVFKVKDTTTLQQHLVDGRDMIIIRMPKDFPPFPQKLKFREPQREERICLVTTNFQTKSMSSMVSDTSCTFPSGDGIFWKHWIQTKDGQCGSPLVSTRDGFIVGIHSASNFTNTNNYFTSVPKNFMELLTNQEAQQWVSGWRLNADSVLWGGHKVFMVKPEEPFQPVKEATQL [Y12H]	0.141	0.0717	0.0587	0.0657	0.053	0.113	0.082	0.0521	0.0701	0.0574	0.105	0.0598	0.061	0.0676	0.0547		0.0783	0.0748		
MGESLFKGPRDSNPISSSICHLTNESDGHTTSLYGIGFGPFIITNKHLFRRNNGTLVVQSLHGVFKVKDTTTLQQHLVDGRDMIIIRMPKDFPPFPQKLKFREPQREERICLVTTNFQTKSMSSMVSDTSCTFPSGDGIFWKHWIQTKDGQCGSPLVSTRDGFIVGIHSASNFTNTNNYFTSVPKNFMELLTNQEAQQWVSGWRLNADSVLWGGHKVFMVKPEEPFQPVKEATQL [Y12S]	0.0904	0.071	0.045	0.0602	0.0582	0.0813	0.0735	0.0696		0.0426	0.0905	0.071	0.0472	0.063	0.07	0.0704	0.0843	0.0593	0.0602	
MGESLFKGPRDYNPISSSICDLTNESDGHTTSLYGIGFGPFIITNKHLFRRNNGTLVVQSLHGVFKVKDTTTLQQHLVDGRDMIIIRMPKDFPPFPQKLKFREPQREERICLVTTNFQTKSMSSMVSDTSCTFPSGDGIFWKHWIQTKDGQCGSPLVSTRDGFIVGIHSASNFTNTNNYFTSVPKNFMELLTNQEAQQWVSGWRLNADSVLWGGHKVFMVKPEEPFQPVKEATQL [H21D]	0.0893	0.0674		0.0573	0.0542	0.0598	0.0359	0.0494	0.0551	0.0374	0.0756	0.0622		0.0489	0.0571	0.0719	0.0553	0.0548		
MGESLFKGPRDYGPISSSICHLTNESDGHTTSLYGIGFGPFIITNKHLFRRNNGTLVVQSLHGVFKVKDTTTLQQHLVDGRDMIIIRMPKDFPPFPQKLKFREPQREERICLVTTNFQTKSMSSMVSDTSCTFPSGDGIFWKHWIQTKDGQCGSPLVSTRDGFIVGIHSASNFTNTNNYFTSVPKNFMELLTNQEAQQWVSGWRLNADSVLWGGHKVFMVKPEEPFQPVKEATQL [N13G]	0.0937	0.0803	0.0557	0.0535	0.0762		0.0915	0.061	0.0839	0.0615	0.0936	0.0653	0.0611	0.0532	0.064	0.0781	0.0771	0.0714		
MGESLHKGPRDYNPISSSICHLTNESDGHTTSLYGIGFGPFIITNKHLFRRNNGTLVVQSLHGVFKVKDTTTLQQHLVDGRDMIIIRMPKDFPPFPQKLKFREPQREERICLVTTNFQTKSMSSMVSDTSCTFPSGDGIFWKHWIQTKDGQCGSPLVSTRDGFIVGIHSASNFTNTNNYFTSVPKNFMELLTNQEAQQWVSGWRLNADSVLWGGHKVFMVKPEEPFQPVKEATQL [F6H]	0.104				0.0607		0.0639	0.0293	0.108		0.1	0.0477			0.0696	0.0651				
